Among all 390,000 compounds or so, about 17,000 (4.4%) were called active. This list was built around the results that the source calls inconclusive (neither active nor inactive); the mix of calls is not that of the screen. Calls follow the shape of the dose curve; as a rule, active = well fitted inhibition curve with a large enough effect; inconclusive = small, poorly fitted or top-dose-only effect; inactive = no such curve, though single readings can be large or run the other way. Potencies of inconclusive entries are doubtful fits and often do not repeat.
The molecules below were run against Lysine-specific demethylase 4A (Homo sapiens) (UniProt O75164) (assay: qHTS Assay for Inhibitors of JMJD2A-Tudor Domain). Details: AlphaScreen JMJD2A-Tudor / H3K4me3 peptide binding; activity change, negative = inhibition: at 114 µM (top of the series).
Chain of UniProt O75164 (O75164 whole entry, looked up, the tested form may be a part): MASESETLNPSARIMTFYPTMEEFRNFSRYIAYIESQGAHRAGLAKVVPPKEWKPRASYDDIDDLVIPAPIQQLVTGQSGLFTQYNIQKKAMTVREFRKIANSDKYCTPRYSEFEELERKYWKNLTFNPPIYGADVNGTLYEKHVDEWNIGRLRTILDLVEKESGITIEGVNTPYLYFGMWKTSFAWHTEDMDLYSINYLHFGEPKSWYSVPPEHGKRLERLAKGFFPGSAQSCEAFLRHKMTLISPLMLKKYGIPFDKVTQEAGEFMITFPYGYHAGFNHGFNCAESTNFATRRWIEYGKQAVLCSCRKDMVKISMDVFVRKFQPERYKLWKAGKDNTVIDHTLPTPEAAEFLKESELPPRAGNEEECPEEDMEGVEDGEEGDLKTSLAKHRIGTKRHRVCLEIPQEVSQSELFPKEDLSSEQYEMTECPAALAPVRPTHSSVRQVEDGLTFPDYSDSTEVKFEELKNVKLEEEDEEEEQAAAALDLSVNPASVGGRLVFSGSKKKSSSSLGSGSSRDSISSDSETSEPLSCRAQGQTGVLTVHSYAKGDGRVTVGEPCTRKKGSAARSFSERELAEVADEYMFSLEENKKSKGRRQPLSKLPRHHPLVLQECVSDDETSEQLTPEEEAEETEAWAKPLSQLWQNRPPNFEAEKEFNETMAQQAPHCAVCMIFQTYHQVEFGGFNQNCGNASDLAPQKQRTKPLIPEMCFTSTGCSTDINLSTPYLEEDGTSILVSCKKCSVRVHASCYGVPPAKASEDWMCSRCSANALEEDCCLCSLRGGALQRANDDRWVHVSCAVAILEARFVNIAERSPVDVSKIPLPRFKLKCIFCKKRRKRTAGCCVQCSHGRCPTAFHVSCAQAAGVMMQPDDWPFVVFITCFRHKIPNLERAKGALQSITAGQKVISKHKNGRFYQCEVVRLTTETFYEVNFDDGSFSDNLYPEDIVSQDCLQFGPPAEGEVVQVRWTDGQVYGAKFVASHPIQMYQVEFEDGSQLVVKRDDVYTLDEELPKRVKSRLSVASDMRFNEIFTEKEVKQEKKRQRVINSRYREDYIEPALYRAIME
`O=C(CN1CCCN(S(=O)(=O)c2ccc(Br)cc2)CC1)Nc1cccc(C(F)(F)F)c1` was tested, and the “activity change, negative = inhibition” value was inactive: -12.7%. For `Cc1[nH]c2ccccc2c1/C=N/NC(=O)c1cc(-c2ccncc2)nc2ccccc12`, the Potency was inconclusive: 39.8 µM [inhibitor, full curve]. With `Cc1cc(C)nc(S/C=C/C(=O)c2ccccc2F)n1` the Potency was inconclusive: 89.1 µM [inhibitor, single point]. With `CC(C)Oc1cccc(C(=O)NC(=S)N2CCN(c3ccc(C(F)(F)F)cc3[N+](=O)[O-])CC2)c1` the Potency was inconclusive: 35.5 µM [inhibitor, full curve, poor fit]. In the case of `COc1ccc(NC(=O)c2cc3n(n2)C(C(F)(F)F)CC(c2ccc4c(c2)OCO4)N3)cc1OC` (stereo not given), the Potency is reported as inconclusive: 56.2 µM [inhibitor, partial curve]. In the case of `CCOC(=O)c1ccc(NC(=O)CSc2nc(C)cc(=O)[nH]2)cc1`, the Potency is reported as active: 44.7 µM. For `COc1ccc(/C=N/Nc2cc(N3CCCC3)nc(N3CCCC3)n2)cc1`, the Potency was inconclusive: 15.8 µM [inhibitor, full curve]. In the case of `COc1ccc(-n2nc([N+](=O)[O-])c(=NCCc3ccc(C)cc3)n2O)cc1`, the Potency is reported as active: 50.1 µM. With `CC1CCN(c2oc(-c3ccc(F)cc3)nc2C#N)CC1` the Potency was inconclusive: 50.1 µM [inhibitor, partial curve]. With `Cc1ccc(/C=N\n2c(-c3ccccc3)n[nH]c2=S)s1` the Potency was active: 50.1 µM. `CC(=O)Nc1cc(=O)c2cccnc2[nH]1` was tested, and the Potency was active: 50.1 µM. `Cc1ccc(NC(=O)CN(c2ccc(Cl)cc2)S(=O)(=O)c2cc([N+](=O)[O-])ccc2Cl)cc1` was tested, and the Potency was inconclusive: 31.6 µM [inhibitor, single point]. With `COc1cccc(C(=O)/C=C2\NCCc3cc(OC)c(OC)cc32)c1` the Potency was inconclusive: 39.8 µM [inhibitor, partial curve]. In the case of `Cc1cccc(NC(=O)c2cc3n(n2)C(C(F)(F)F)CC(c2ccc4c(c2)OCO4)N3)c1` (stereo not given), the “activity change, negative = inhibition” value is reported as inactive: -21.2%. In the case of `COc1ccc2cc(CN(Cc3ccco3)Cc3nnnn3C3CCCCC3)c(=O)[nH]c2c1`, the Potency is reported as inconclusive: 56.2 µM [inhibitor, partial curve]. For `CCn1cc(CN2CCc3c([nH]c4ccccc34)C2c2cccc(OC)c2)c(C)n1` (stereo not given), the Potency was inconclusive: 56.2 µM [inhibitor, partial curve]. With `N#Cc1nc(COc2ccc(Br)cc2)oc1N1CCCC1` the Potency was inconclusive: 7.08 µM [inhibitor, full curve, poor fit]. `COc1nc(N(C)C)nc(N(C#N)S(=O)(=O)c2ccc(C)cc2)n1` was tested, and the “activity change, negative = inhibition” value was inactive: -11%. In the case of `COc1cc(CN2CCN(C(=O)c3cccc4ccccc34)CC2)cc(OC)c1OC`, the Potency is reported as active: 20 µM. In the case of `CCOc1cccc2sc(N(CCCN(C)C)C(=O)c3ccc(S(=O)(=O)N(C)c4ccccc4)cc3)nc12`, the Potency is reported as inconclusive: 50.1 µM [inhibitor, partial curve]. `COc1cc(OC)c(C2CC(=O)N3CN(c4ccc(C)cc4)CSC3=C2C#N)cc1OC` (stereo not given) was tested, and the Potency was active: 4.47 µM. In the case of `CCCCN1C(=O)c2[nH]nc(-c3ccccc3O)c2C1c1ccc(OCc2ccccc2)cc1` (stereo not given), the Potency is reported as inconclusive: 12.6 µM [inhibitor, full curve]. `CCOC(=O)N1CCN(c2cc(NCCC(=O)O)c3c4c(onc24)-c2ccccc2C3=O)CC1` was tested, and the Potency was active: 56.2 µM. With `O=C(c1cccc(F)c1)n1nnc2ccccc21` the “activity change, negative = inhibition” value was inactive: -10%. `O=C(NNc1cccc(Cl)n1)c1ccc(Cl)nc1` was tested, and the Potency was inconclusive: 17.8 µM [inhibitor, single point]. `Cc1ccc(NC(=O)CNCc2cccs2)cc1Br` was tested, and the Potency was active: 1.26 µM. With `COc1ccccc1NC(=O)CSc1nnc(NC(=O)Nc2ccc(C)cc2)s1` the “activity change, negative = inhibition” value was inactive: -14.6%. With `CCCc1cc(F)c(S(=O)(=O)N2CCN(S(=O)(=O)c3ccc4c(c3)OCCO4)CC2)cc1F` the Potency was inconclusive: 39.8 µM [inhibitor, single point]. With `CN(C)CCNC(=O)c1ccc2c(c1)NC(=O)C(CS(=O)(=O)Cc1cccc(Br)c1)N2` (stereo not given) the Potency was inconclusive: 56.2 µM [inhibitor, partial curve, poor fit]. `COc1ccc(S(=O)(=O)NCc2ccccn2)cc1NC(=O)c1ccccc1C` was tested, and the Potency was active: 1 µM. `CCCCCCNC(=O)N[C@@H](C(=O)NCCC[C@H]1CN2C(=NC[C@@H]2Cc2ccccc2)N1CCc1cccc(OC)c1)C(C)C` was tested, and the Potency was active: 5.01 µM. With `COc1cccc2cc(C(=O)NCc3ccco3)c(=Nc3ccc(C(=O)O)cc3)oc12` the Potency was inconclusive: 79.4 µM [inhibitor, partial curve]. With `O=C1/C(=C\c2ccc(-c3ccccc3Cl)o2)SC(=S)N1CC1CCCO1` (stereo not given) the Potency was inconclusive: 3.16 µM [inhibitor, single point]. In the case of `c1ccc2c(CN3CCOCC3)c3ccccc3c(CN3CCOCC3)c2c1`, the “activity change, negative = inhibition” value is reported as inactive: -16.9%. `Cc1ccsc1C(=O)OCC(=O)c1cc(C)n(CC2CCCO2)c1C` (stereo not given) was tested, and the Potency was inconclusive: 28.2 µM [inhibitor, full curve]. In the case of `O=C1c2ccccc2C(Nc2ccc3c(c2)OCCO3)N1Cc1ccco1` (stereo not given), the Potency is reported as inconclusive: 56.2 µM [inhibitor, partial curve]. `Cc1cc(C)n(Cc2ccc(C(=O)O)cc2)n1` was tested, and the “activity change, negative = inhibition” value was inactive: 0.552%. In the case of `NS(=O)(=O)c1ccc(-c2c(-c3ccccc3)sc3ccccc23)cc1`, the Potency is reported as active: 79.4 µM. `Cc1c(NS(=O)(=O)c2ccc(Cl)c(C(=O)OCC(=O)NCc3ccco3)c2)c(=O)n(-c2ccccc2)n1C` was tested, and the Potency was inconclusive: 25.1 µM [inhibitor, partial curve]. With `Cc1sc(NC(=O)C2=COCCO2)nc1-c1ccc(Cl)cc1` the “activity change, negative = inhibition” value was inactive: -1.38%. With `Cc1cc(C)c(S(=O)(=O)Nc2ccc(-c3cn4ccccc4n3)cc2)c(C)c1` the Potency was inconclusive: 44.7 µM [inhibitor, partial curve]. For `Cc1cc2cc(CN(CCCN3CCOCC3)C(=O)NC3CCCCC3)c(=O)[nH]c2cc1C`, the “activity change, negative = inhibition” value was inactive: -20.9%. In the case of `COc1ccc(C2CC(C(C)(C)C)=NN2c2ccc(S(N)(=O)=O)cc2)cc1` (stereo not given), the Potency is reported as inconclusive: 79.4 µM [inhibitor, partial curve]. For `O=C(O)/C=C/C(=O)Nc1ccccc1-c1ccccc1NC(=O)/C=C/C(=O)O`, the Potency was active: 79.4 µM. With `COc1ccc2c(c1OC)C(=O)OC2Nc1nc(-c2ccccc2)cs1` (stereo not given) the Potency was inconclusive: 89.1 µM [inhibitor, single point]. `N#Cc1nc(COc2cccc(Cl)c2)oc1NCCc1ccccc1` was tested, and the Potency was inconclusive: 28.2 µM [inhibitor, partial curve]. In the case of `CN(C)c1ncc(C(=O)O)cn1`, the Potency is reported as inconclusive: 50.1 µM [inhibitor, partial curve]. For `c1ccc(-c2ccc(C3=Nn4c(nnc4-c4cc(-c5ccccc5)n[nH]4)SC3)cc2)cc1`, the “activity change, negative = inhibition” value was inactive: -15.1%. With `CC(=O)N1c2ccc(C)cc2Sc2c1ccc1ccccc21` the “activity change, negative = inhibition” value was inactive: -21.4%. `CC(C)[C@H](NC(=O)C1CC(=O)N(c2ccc(F)cc2)C1)C(=O)N1CCCCC1` (stereo not given in full) was tested, and the Potency was inconclusive: 11.2 µM [inhibitor, full curve, poor fit]. With `CCc1ccc(-c2cn3c(n2)sc2cc(C(=O)NCCC4=CCCCC4)ccc23)cc1` the “activity change, negative = inhibition” value was inactive: -12.5%. With `CC1=C(C(N)=O)C(c2ccccc2[N+](=O)[O-])n2ncnc2N1` (stereo not given) the Potency was active: 39.8 µM. With `Cc1[nH]n(-c2ncc(-c3ccc(Cl)cc3)s2)c(=O)c1C(c1ccc(Cl)cc1)C(C#N)C#N` (stereo not given) the Potency was active: 56.2 µM. With `Nc1nnnn1/N=C/c1cc(Br)ccc1O` the Potency was active: 28.2 µM. In the case of `CC(=O)c1ccc(OC(C)C)c(Cc2c(O)nc(N)[nH]c2=O)c1`, the Potency is reported as inconclusive: 20 µM [inhibitor, single point]. In the case of `COc1ccc(C(=O)Nc2nc3n(n2)C(c2ccccc2)C=C(c2ccccc2)N3)cc1` (stereo not given), the Potency is reported as active: 79.4 µM. For `Cc1cc(NC(=O)c2cc(-c3ccncc3)nc3ccccc23)ccc1Br`, the Potency was inconclusive: 25.1 µM [inhibitor, full curve, poor fit]. For `O=C(O)Cn1cc(C(=S)N2CCCCC2)c2ccccc21`, the Potency was inconclusive: 89.1 µM [inhibitor, single point]. For `CCOC(=O)C1Nc2ccccc2C2C(O)C(O)CC12` (stereo not given), the Potency was active: 50.1 µM. `CCOC(=O)COc1ccc2c(=O)cc(-c3ccccc3)oc2c1` was tested, and the “activity change, negative = inhibition” value was inactive: -8.72%. With `COCCn1c(C)cc(C(=O)COc2ccc(C)nc2[N+](=O)[O-])c1C` the Potency was inconclusive: 39.8 µM [inhibitor, full curve, poor fit]. `Cc1ccc(CC(=O)Nc2ccc3c(c2)N(C)C(=O)c2ccccc2S3)cc1` was tested, and the Potency was inconclusive: 56.2 µM [inhibitor, partial curve]. `CCOC(=O)c1c(C)n(C)c2ccc(OC)c(NC(=O)c3cccs3)c12` was tested, and the Potency was inconclusive: 39.8 µM [inhibitor, single point]. `CN(/C=C/C(=C/C=[N+](C)c1ccccc1)OCCCS(=O)(=O)[O-])c1ccccc1` was tested, and the “activity change, negative = inhibition” value was inactive: -25.1%. For `Cc1ccc(Nc2sc(C(=O)c3ccccc3)c(N)c2C(=O)Nc2ccc(Cl)cc2)cc1`, the Potency was inconclusive: 50.1 µM [inhibitor, partial curve]. For `CN1CCN(c2nc(-c3cccc([N+](=O)[O-])c3)nc3ccccc23)CC1`, the Potency was inconclusive: 56.2 µM [inhibitor, partial curve]. In the case of `CCN(CC)CCN1CNC(=S)N(c2ccccc2OC)C1`, the Potency is reported as inconclusive: 39.8 µM [inhibitor, partial curve]. With `N#Cc1ccc(CN2CCN(C(=O)c3ccc(S(=O)(=O)NCc4ccco4)cc3)CC2)cc1` the “activity change, negative = inhibition” value was inactive: -4.73%. With `CCOC(=O)c1cc(C#N)c(SCC(=O)O)[nH]c1=O` the Potency was active: 31.6 µM. `C[C@@H]1CN([C@@H](C)CO)C(=O)c2cc(NS(=O)(=O)c3cccs3)ccc2O[C@H]1CN(C)Cc1ccc(C(F)(F)F)cc1` was tested, and the Potency was inconclusive: 50.1 µM [inhibitor, partial curve].
% is scaled to controls: 0 for no effect and ±100 for the full control effect; potency is read from the fitted curve at half-maximal effect; tags tell the direction and shape of the fitted curve.
Also: nearly all actives have a fitted effect of over 50% in size.
